From PubChem BioAssay AID1347073 (National Center for Advancing Translational Sciences (NCATS), 2019)
The whole screen tested about 45,000 compounds, of which about 200 (0.44%) were called active. About 7% were inconclusive and are not listed. Calls come from the whole dose curve; as a rule, active = well fitted activation curve with a large enough effect; inconclusive = small, poorly fitted or top-dose-only effect; inactive = no such curve, though single readings can be large or run the other way. The list shows a part of the results.

Assay: qHTS of TDP-43 Inhibitors: NCGC Sytravon Library Screen; note: 0% is about no effect; nearly all actives have a fitted effect of over 55% in size
Details: yeast TDP-43 toxicity rescue, BacTiter-Glo growth, 24 h; series mostly up to 46.1 µM; growth rescue (activation): at the top concentration
How it was run: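 TDP-43-expressing yeast, pregrown in raffinose, seeded at OD600 0.02 in galactose medium with compound for 24 hr at 30 deg C. Growth read by BacTiter-Glo luminescence, so rescue of toxicity appears as activation.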

SMILES	growth rescue (activation)
CCOc1ccc(/C=N/NC(=O)c2[nH]ncc2Br)c(O)c1	inactive: -14.4%
CCc1ccc2nc(SCC(=O)Nc3ccccc3N3CCOCC3)c(C#N)cc2c1	inactive: 2.13%
Cc1cccc(N2CCN(C(C)C(=O)N3CCc4ccccc43)CC2)c1C (centres undefined)	inactive: 12.8%
CC(NS(=O)(=O)c1ccc([N+](=O)[O-])cc1)C(=O)NN (centres undefined)	inactive: 19.5%
CCOc1ccc(NC(=O)N2CC(C)OC(C)C2)cc1 (centres undefined)	inactive: 4.07%
CC(OC(=O)c1ccccc1N1C(=O)C2C3CCC(C3)C2C1=O)C(=O)c1ccccc1 (centres undefined)	inactive: -3.11%
COc1ccc(-c2nc(C#N)c(N3CCC(C)CC3)o2)cc1	inactive: 7.37%
Cc1nn(C(=O)c2cccc([N+](=O)[O-])c2)c(C)c1Br	inactive: 0.226%
CC1(C)C=C(c2ccc(C=O)s2)CC(C)(C)N1C=O	inactive: 1.27%
CCC(C)NC(=O)C1c2ccccc2Oc2ccccc21 (centres undefined)	inactive: -5.08%
COc1ccc(CN(C)C(=O)c2oc3ccccc3c2CSC)cc1F	inactive: 9.46%
CC1(c2ccc(Cl)cc2)NC(=O)N(CN2CCOCC2)C1=O (centres undefined)	inactive: -4.25%
COC(=O)N/N=C(\C)c1ccc(C)c([N+](=O)[O-])c1	inactive: -2.67%
O=[N+]([O-])c1ccc(NCCCO)c(C(F)(F)F)c1	inactive: 16.7%
O=C(N/N=C/c1ccccc1[N+](=O)[O-])c1ccc2nc[nH]c2c1	inactive: 12.6%
Cc1ccc(N(C(C)C(=O)N2CCCC2)S(C)(=O)=O)cc1 (centres undefined)	inactive: 5.58%
O=C(NCCc1c[nH]c2ccc(Cl)cc12)c1ccc([N+](=O)[O-])cc1	inactive: -3.76%
COc1ccc(CCN(Cc2cccs2)S(=O)(=O)c2ccc(S(=O)(=O)N3CCC(C)CC3)cc2)cc1OC	inactive: 10.7%
Cc1cc(C)c[n+](C(C)C(=O)c2ccc(-c3ccccc3)cc2)c1 (centres undefined)	inactive: 16.3%
Cc1nc2ccc(C(=O)NCCc3c[nH]c4ccccc34)cn2c1N(C)C(=O)CCc1ccccc1	inactive: 1.79%
O=C(CN(CCc1ccccc1)Cc1ccccc1)Oc1ccccc1P(=O)(O)O	inactive: -5.61%
CCOc1ccc2nc(COC(=O)c3cccs3)c(C(=O)c3ccccc3)[n+]([O-])c2c1	inactive: -19.3%
Cc1cc(C(=O)COC(=O)C2=NN(c3ccccc3)C(=O)CC2)c(C)n1CC(F)(F)F	inactive: 4.74%
O=C(CCNS(=O)(=O)c1cccc2nsnc12)NCc1ccccc1	inactive: 8.4%
Cc1cc(C)n(C(=O)CNC(=O)C2COc3ccccc3O2)n1 (centres undefined)	inactive: -6.02%
COc1ccc(Br)cc1/C=N/N1C(=O)CSC1=S	inactive: 12.2%
Cc1ccc(-n2cc(CN3CCNC(=O)CC3)c(-c3ccc(F)cc3)n2)cc1	inactive: 34.8%

SMILES	growth rescue (activation)
CCn1c(CCNC(=O)c2ccc(C)cc2)nnc1SCc1ccc(Cl)c(Cl)c1	inactive: 24.6%
COCCN(Cc1cn(C)nc1-c1ccccc1F)C(C)C	inactive: -19.7%
COc1ccc(OC)c(S(=O)(=O)N2CCC(C(=O)N(C)Cc3ccccc3)CC2)c1	inactive: 11.7%
COc1ccc2cc(C#N)c(SCC(=O)Nc3nonc3C)nc2c1	inactive: 26.3%
CC1CC(C)CN(C2CCCCC2NS(=O)(=O)c2ccc(Cl)cc2)C1 (centres undefined)	inactive: -15.7%
CC(NC(=O)COC(=O)COc1ccc(Cl)cc1)c1ccccc1 (centres undefined)	inactive: -9.43%
O=c1c(/C=N/O)coc2ccc(Cl)cc12	inactive: -93.5%
O=C(CCCCCNC(=O)c1ccccc1)N/N=C/c1ccco1	inactive: 1.46%
COc1ccc([N+](=O)[O-])cc1NC(=O)c1ccc(N(Cc2ccccc2Cl)S(C)(=O)=O)cc1	inactive: 21.3%
CCc1nc2c(OCC(=O)C(C)(C)C)cccn2c1N(C)C(=O)Nc1ccccc1OC	inactive: 5.5%
COc1ccc(C)cc1-n1[nH]nnc1=S	inactive: 3.12%
O=C(CSc1n[nH]c(-c2ccncc2)n1)Nc1ccc(F)cc1	inactive: -3.42%
CC(=O)c1cc2c(cc1NC(=O)CCn1cnnn1)OCO2	inactive: 5.59%
CS(=O)(=O)c1ccc2nc(NC(=O)CCS(=O)(=O)c3ccccc3)sc2c1	inactive: -8.78%
Cc1ccc(S(=O)(=O)CCC(=O)OCC(=O)c2c[nH]c3ccccc23)cc1	inactive: -3.1%
Cc1ccc(/C=C/C(=O)O)cc1S(=O)(=O)Nc1ccc2c(c1)OCO2	inactive: 12.2%
O=C(NCCN1C(=O)S/C(=C/c2cccnc2)C1=O)c1ccc(S(=O)(=O)N2CCCC2)cc1	inactive: 19.8%
COc1ccccc1CNC(=O)C1CCC(CNS(=O)(=O)c2ccc(C)cc2)CC1 (centres undefined)	inactive: 5.35%
Cn1c(NC(=O)C[n+]2cc(-c3ccc(Cl)cc3)n3c2CCC3)cc(=O)n(C)c1=O	inactive: -1.35%
CCOC(=O)c1c(NC(=S)NCC2CCCO2)sc(C)c1C (centres undefined)	inactive: 25.2%
COc1cc(NC(=O)c2cc(Br)cc(C)c2OC)ccc1NC(=O)C(C)C	inactive: 20.8%
COc1cc(CN2CCN(C(O)(c3ccccc3)c3ccccc3)CC2)cc(OC)c1OC	inactive: 3.97%
COc1ccc2cc(CCNS(=O)(=O)c3c(C)cc(C)cc3C)c(=O)[nH]c2c1	inactive: 0.0437%
Cc1ccccc1OCC1Cc2c(nc(N)c(C#N)c2N)O1 (centres undefined)	inactive: 12.5%
COCCn1c(SCC(=O)Nc2cccc(C)n2)nnc1-c1ccco1	inactive: 7.01%
O=C(NN1C(=O)/C(=C/C=C/c2ccco2)SC1=S)c1ccncc1	inactive: 4.87%
COc1ccc(C(=O)NNC(=O)CCCCC(=O)NNC(=O)c2ccc(OC)cc2)cc1	inactive: 6.16%
